Hit rate of the full screen: of about 310,000 compounds, about 2,200 (0.71%) showed an effect of 50% or more. Effects have a minus sign here. This is one part of the list.
Target: human ether-à-go-go-related gene (hERG) potassium channel (human, UniProt Q12809)
Assay: primary screen, population patch clamp on CHO cells stably expressing hERG

Chain of human ether-à-go-go-related gene (hERG) potassium channel (Q12809 whole entry, looked up): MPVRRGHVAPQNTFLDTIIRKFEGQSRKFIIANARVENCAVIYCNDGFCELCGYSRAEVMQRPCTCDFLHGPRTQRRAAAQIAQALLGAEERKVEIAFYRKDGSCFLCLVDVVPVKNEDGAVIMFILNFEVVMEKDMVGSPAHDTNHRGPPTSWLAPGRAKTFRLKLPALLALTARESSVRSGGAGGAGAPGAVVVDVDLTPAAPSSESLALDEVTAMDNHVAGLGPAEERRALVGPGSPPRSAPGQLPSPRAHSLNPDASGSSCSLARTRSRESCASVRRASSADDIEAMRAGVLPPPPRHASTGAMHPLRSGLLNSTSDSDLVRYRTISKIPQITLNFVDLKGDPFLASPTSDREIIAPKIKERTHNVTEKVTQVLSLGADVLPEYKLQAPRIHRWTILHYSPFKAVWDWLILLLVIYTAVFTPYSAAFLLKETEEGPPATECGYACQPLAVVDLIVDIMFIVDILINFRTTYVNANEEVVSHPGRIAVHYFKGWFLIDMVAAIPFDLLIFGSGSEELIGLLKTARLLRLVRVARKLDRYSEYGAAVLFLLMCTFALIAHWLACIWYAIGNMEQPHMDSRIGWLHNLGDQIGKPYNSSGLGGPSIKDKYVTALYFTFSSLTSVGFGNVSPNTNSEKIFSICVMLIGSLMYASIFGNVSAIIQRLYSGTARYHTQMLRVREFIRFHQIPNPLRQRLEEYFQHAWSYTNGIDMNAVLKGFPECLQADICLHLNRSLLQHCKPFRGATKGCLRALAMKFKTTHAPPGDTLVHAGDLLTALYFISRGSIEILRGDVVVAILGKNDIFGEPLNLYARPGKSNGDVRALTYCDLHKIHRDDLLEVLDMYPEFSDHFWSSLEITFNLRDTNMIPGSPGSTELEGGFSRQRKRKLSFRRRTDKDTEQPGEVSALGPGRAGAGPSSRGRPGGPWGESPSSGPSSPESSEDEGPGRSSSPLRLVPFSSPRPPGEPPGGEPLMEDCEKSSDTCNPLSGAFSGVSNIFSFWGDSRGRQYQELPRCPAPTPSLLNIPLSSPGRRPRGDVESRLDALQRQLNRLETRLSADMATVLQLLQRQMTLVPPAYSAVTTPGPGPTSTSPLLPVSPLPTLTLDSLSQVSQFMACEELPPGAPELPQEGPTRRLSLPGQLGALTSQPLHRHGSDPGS

Compound	hERG current change (%, negative = inhibition) at 1uM [%]
CSc1ncccc1C(=O)OCc1ccccc1	6.25
COc1ccc(C)cc1NC(=O)c1cc(-c2ccccc2)nc2c1cnn2C(C)C	4.36
Cc1cc(/C=C(\C#N)C(=O)NCc2ccccc2)cc(C)c1O	16.4
CN(c1ccc(C(=O)Nc2ccc3c(c2)OCCO3)cc1)S(C)(=O)=O	10.1
COC(=O)c1ccccc1NS(=O)(=O)c1cn(C)c(=O)n(C)c1=O	1.71
COc1ccc(OCC#CCN2CCCCCC2)cc1.O=C(O)C(=O)O	-0.12
O=C(CCN1C(=O)/C(=C/c2ccccc2)SC1=S)NCCCN1CCOCC1	2.61
Cc1ccc(C)c(NC(=O)C(C)CC2COCCO2)c1 (stereo not shown)	6.86
Cc1ccc(S(=O)(=O)N/N=C/c2ccccc2F)cc1[N+](=O)[O-]	17.4
c1ccc(-n2nnnc2-n2cnc3ccccc32)cc1	2.26
Oc1cc2c(cc1CN1CCN(c3ccccc3F)CC1)OCO2	5.29
O=c1c2ccccc2sc2ccc(Cl)cc12	17.1
COc1ccccc1N1CCN(CC(=O)Nc2ccc(-n3cnnn3)cc2)CC1	8.78
Cc1ccc([N+](=O)[O-])cc1NC(=O)C1CCCC1	16.3
COc1ccsc1NC(=O)OCc1ccc(Cl)cc1	-11.5
CC(C)NC(=O)CN1C(=O)c2ccccc2S1(=O)=O	12.7
CCOc1ccccc1NC(=O)CSc1nnc(-c2ccco2)n1Cc1ccco1	3.17
COc1cc(OC)cc(C(=O)Nc2ccc(CN3CCCCC3)cc2)c1	13
COc1ccccc1NC(=S)NC(=O)CC(C)C	-2.42
O=C(NCC1CCCO1)c1cc(-c2ccccc2)on1 (stereo not shown)	4.24

Compound	hERG current change (%, negative = inhibition) at 1uM [%]
COc1cc(C(=O)Nc2ccc(C#N)cc2)c([N+](=O)[O-])cc1OC	1.12
O=C(Nc1ccc2c(c1)CCC2)c1cnccn1	0.632
COc1ccc(-c2cn(-c3ccccc3)nc2C(=O)O)cc1OC	8.69
Cc1ccc(NC(=O)COC(=O)/C=C/c2c(C)nn(-c3ccc(F)cc3)c2Cl)cc1F	7.45
CCCCCCn1c(C(C)NC(=O)c2ccco2)nc2ccccc21 (stereo not shown)	-7.39
Cc1ccc(NC(=O)c2cc(=O)[nH]c3ccc(S(=O)(=O)N4CCOCC4)cc23)nc1	14.5
Cc1nc(-c2ccc(S(=O)(=O)NCc3cccnc3)s2)cs1	11.8
COc1ccc(N2C(=O)c3ccccc3C2O)cc1 (stereo not shown)	8.57
Cc1ccc2c3c1C1(C(=O)N3C(C)(C)CC2C)C(C#N)=C(N)Oc2cc(O)ccc21 (stereo not shown)	3.75
C=CCNC(=O)CN1C2CCCC1CC(NC(=O)c1ccccc1C)C2 (stereo not shown)	13.2
CCCS(=O)(=O)NCCc1cc2ccc(C)cc2[nH]c1=O	9.97
OCC1(Cc2ccccc2)CCN(Cc2cccc(F)c2F)CC1	4.03
CC(=O)Oc1ccc(/C=N\NC(=O)c2cc3c(ccc4ccccc43)o2)cc1	7.1
CCOC(=O)C1CCN(c2nnc(N3CCCC3=O)s2)CC1	13
CCCC(C)NC(=O)COc1ccc(S(=O)(=O)N2CCCC2)cc1 (stereo not shown)	12.9
COc1ccc2nc(SCC(=O)NCc3ccc4c(c3)OCO4)[nH]c2c1	7.13
Cl.O=C(CCl)N1CCN(CC(=O)N2CCCC2)CC1	18.6
Cc1ccc(-c2c(C(=O)N/N=C/c3cccnc3)nnn2-c2nonc2N)cc1	12.5
Cn1c(CS(=O)Cc2c(Cl)cccc2Cl)nnc1SCc1ccc(Cl)cc1 (stereo not shown)	-12.4
CC(C)(C)NC(=O)c1cccc(NC(=O)CSc2ccc(Cl)cc2)c1	-23.1

Compound	hERG current change (%, negative = inhibition) at 1uM [%]
Cc1ccc(C(=O)OCC(=O)Nc2ccccc2N2CCOCC2)cc1	8.92
CCCN(CCC)C(=S)NC(=O)c1ccc(Cl)cc1Cl	-5.92
COc1ccccc1NC(=O)Nc1nnc(-c2ccco2)s1	22.7
Cc1cn(S(=O)(=O)c2ccc(Br)cc2)cn1	-5.94
CCc1ccc(N(C(=O)c2ccco2)C(C(=O)NC2CCCC2)c2ccco2)cc1 (stereo not shown)	8.56
O=c1cc(N2CCCCC2)c(-c2ccccc2)nn1Cc1ccc(Cl)cc1Cl	0.99
COc1cccc(-c2nc(C(N)=O)c3[nH]c(=O)n(-c4ccccc4)c3n2)c1OC	7.39
CCn1cc(C(=O)N(CCC(C)C)c2c(N)n(Cc3ccccc3)c(=O)[nH]c2=O)c(=O)c2ccc(C)nc21	-4.79
COc1ccc(CCNC(=O)C2CC(=O)N(C3CCCC3)C2)cc1OC (stereo not shown)	-4.21
COc1ccc(/C=N/NC(=O)c2cccc(Br)c2)cc1CN1CCOCC1	-38.5
O=C(COC(=O)c1cc(Br)ccc1O)NNC(=O)c1ccc(Cl)cc1	14.9
CC1(C)N=C(c2ccccc2)[C@@H]2C(c3ccc([N+](=O)[O-])cc3)N21 (stereo partly shown)	-1.05
Cc1cc(NC(=O)c2ccccc2)ncc1NC(=O)c1cccs1	19.4
Cn1c(=O)c2c(nc(NCCO)n2CCc2ccccc2)n(C)c1=O	6.9
Cc1ccc(NN=Nc2nc3c([nH]2)c(=O)n(C)c(=O)n3C)cc1	7.18
CCc1cc(=O)oc2cc(C)cc(OC(C)C(=O)NCCCN3CCOCC3)c12 (stereo not shown)	13
Cc1ccccc1Nc1nc(NCc2ccco2)c2ccccc2n1.Cl	-5.19
CCOc1cc(S(=O)(=O)Nc2ccncc2)ccc1F	13.7

From paper PMC4336329 (PLoS ONE, 2015)
